Experimental data taken from the RNAGym collection of RNA variant scans (doi:10.1093/nar/gkz1192).
The source gives no read counts; variants with many changes may rest on few reads.

B1: CPEB3 Ribozyme (parent)
chain: UAACAGGGGGCCACAGCAGAAGCGUUCACGUCGCAGCCCCUGUCAGAUUCUGGUGAAUCUGCGAAUUCUGCUGUAUAUCUC

Variants of: B1
Assay: self-cleavage, relative activity (ratio to wild type); higher = more cleavage; in vitro, sequencing
Method in brief: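 For each CPEB3 ribozyme variant, relative activity is its cleaved/total read fraction divided by the unmutated ribozyme's. Barcoded error-prone PCR libraries were transcribed by T7 RNA polymerase (5 hours, 37°C) and held in DNase I for 15 min before an EDTA stop, with cleavage occurring throughout. Template-switching reverse transcription and Illumina sequencing were used to read the RNAs. A 5-read minimum applied, and results are the mean of three batches.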

| Variant | self-cleavage |
| --- | --- |
| UAACAGGGAGCCACAGCAGAAGCGUUCGCGUCGCAGCCCCUAUCAGAUUCCGGCGAAUCUGCGAUUUCUGCUGUGUAUCUC [G9A A28G G42A U51C U54C A65U A75G] | 0.04 |
| UAACAGGGAGCCACAGCAGAAGCGUUCCCGCCGCAGCCCCUGUCUGAUUCUGGUGAAUCUGCGGAUUCUGCUGUAUAUCUC [G9A A28C U31C A45U A64G] | 0.05 |
| UAACAGGGAGCCACAGCAGAAGCGUUCACGUCGCAGCCCCUGUCAGGUUCUGGUGAAUCUGCGUAUUCUGCUGUAUAUCUC [G9A A47G A64U] | 0.08 |
| UAACAGGGAGCCACAGCAGAAGGGUUCACGUCGCAGCCCCUGUCAGAUUCUGGUGAAUCUGCGAAUUCUGCUGUAUGUCUC [G9A C23G A77G] | 0.28 |
| UAACAGGGAGCCACAGCAGAAGCGUUCACGUUGCAGCCCCUGUCAGACUCUGGUGUAUCUGCGAAUUCUGCUGUAUAUCUC [G9A C32U U48C A56U] | 0.01 |
| UAACAGGGAGCCACAGCAGAGGCGUUCACGUCGCAGCCCCAGUCAGAUUCUGGUGAAUCUGCGAAUUCUGCUGUAUAUCUC [G9A A21G U41A] | 0.18 |
| UAACAGGGAGCCACAGCAGAAGCGUUCACGUCGCAGCCCCUGUCGGAUUCUGGUGAAUCUGCGAAUUCCGCUGUAUAUCUC [G9A A45G U69C] | 0.16 |
| UAACAGGGAGCCACAGCAGAAGCGUUCACGUCGCAGCCCCUGUCAGAUUCUGGUGAGUCCGCGAAUUCUGCUGUAUAUCCC [G9A A57G U60C U80C] | 0.05 |
| UAACAGGGAGCAACAGCAGAAGCGCUCACGUCGCAGCCCCUGACAGAUUCUGGUGGAUCUGCGAAUUCUGCUGUAUAUCUC [G9A C12A U25C U43A A56G] | 0.07 |
| UAACAGGGAGCCACAGCAGAAGCGUUCACGUUGCGGCCCCAGUCAGAUUCUGGUGGAUCAGCGAAUUCUGCUGUAAAUCUC [G9A C32U A35G U41A A56G U60A U76A] | 0.04 |
| UAACAGGGAGCCACAGCAGAAGGGUUCACGUCGCAGCCCCAGUCAGAUUCUGGUGAAUCUGCGAAUUCAGCUGUAUAUCUC [G9A C23G U41A U69A] | 0.04 |
| UAACAGGGAGCCACAGCAGAAGCGUUCCCGUCGCAGCCCCUGUCGGACUCUGGUGAAUCUGUGAAUUCUGCUGUAUAUCCC [G9A A28C A45G U48C C62U U80C] | 0.12 |
| UAACAGGGAGCCACCGCAGAAGCGUUCACGUCGCAGCCCCUGUCAGAUUCUGGUGAAUCUGCGAAUUCUGCAGUAUAUCUC [G9A A15C U72A] | 0.14 |
| UAACAGGGAGCCACAGCAGUAGCGCUCACGUCGGAGCCCCUGUCAGAUUCUGGUGAAUCAGCGAAUUCUGCUGUGUAUCUC [G9A A20U U25C C34G U60A A75G] | 0.04 |
| UAACAGGGAGCCACGGCAGAAGCGUUCACGUCGCAGCCCCUGUCAGAUUCUGGUGAAUCUGCGAAUUCCGCUGUAUAUCUC [G9A A15G U69C] | 0.07 |
| UAACAGGGAGCCACAGCGGAAGCGUUCUCGUCGCAGCCCCUGCCAGACUCUAGUGAAUCUGCGGAUUCUGCUGUAUAUCUC [G9A A18G A28U U43C U48C G52A A64G] | 0.03 |
| UAACAGGGAGCCACUACAGAAGCGCUCACGUCGCAGCCCCUGUCAGAUUCAGGUGAAUCUGCGAAUUCUGCUGCAUAUAUC [G9A A15U G16A U25C U51A U74C C79A] | 0.04 |

| Variant | self-cleavage |
| --- | --- |
| UAACAGGGAGCCACAGCAGAAGCGUUAACGACGCAGCCCCUGUCAGAGUCUGGCGCAUCUGCGAAUUCUGCUGUACAUCUC [G9A C27A U31A U48G U54C A56C U76C] | 0.04 |
| UAACAGGGAGCCACUGCAGAAGCGUCCGCGUCGCAGCCCCUGCCAGAUUCUGGUGAAUCUGCGAAUUCUGCUGUAUAUCUC [G9A A15U U26C A28G U43C] | 0.06 |
| UAACAGGGAGCCACGGCAGAAGCGUACACGUCGCAGCCCCUGUCGGAUACUUGUGAAUCCGCGAAUUCUGCUGUAUAUCUC [G9A A15G U26A A45G U49A G52U U60C] | 0.06 |
| UAACAGGGAGCCACAGCAGAAGCGUUCUGGCCGCAGCCCCUGUCAGAUUCUGGAGAAUCUGCGAAUUCUGCUGUGUAGCUC [G9A A28U C29G U31C U54A A75G U78G] | 0.03 |
| UAACAGGGAGCCACAGCAGAAGCGUUAACGUCGCAACCCCUGUCAGAUCCUGGUGGAUCUGCGAACUCUGCUGUAUAUCUC [G9A C27A G36A U49C A56G U66C] | 0.04 |
| UAACAGGGAGCCACAGCAGAGGUGUUCACGUCGCGGCCCCUGUCAGAUUCUGGUGAACCUGCGAAUUCUACUGUAUAUCUC [G9A A21G C23U A35G U58C G70A] | 0.14 |
| UAACAGGGAGCCACGGCAGAAUCGUCCACGUCGCAGCCCCUGUCGGAUUCUGGUGAAUCUGCGAAUUCAGCUGUAUACCUC [G9A A15G G22U U26C A45G U69A U78C] | 0.04 |
| UAACAGGGAGCAACAGCUGAAGCGUUCACGCCGCAGCCCCUGUCAGAUUCUGGUGAAUCCGCGAAUUCUGCUGUAUAACUC [G9A C12A A18U U31C U60C U78A] | 0.03 |
| UAACAGGGAGCCACAGCAGAAGCGUUCUCGUCGCAGCCCUUGUCAGAUUCUGGUGAAUCUGCGAACUCUGCUGUAUAUCUC [G9A A28U C40U U66C] | 0.04 |
| UAACAGGGAGGCACAGCAGAAGCGUUCACGUCGCAGCCCCUGUCAGAUUCUGGUGAAUCUGCGAAUUCUGCUGUAUAUCCC [G9A C11G U80C] | 0.07 |
| UAACAGGGAGCCACAGCAGAAGCGUUCACGUCGCGGACCCUGUCAGAUUCUGGUGAAUCUGCGGACUCAGCUGUAUACCUC [G9A A35G C37A A64G U66C U69A U78C] | 0.03 |
| UAACAGGGAGCCACAGCAGAGGCGUUCACGUCGCAGCCCCUGUCAGAUUCUGGCGAAUCUGCGUAUUCUGCUGUAUAUCUC [G9A A21G U54C A64U] | 0.05 |
| UAACAGGGAGCCACGGCAGAAGCGUUCACGUCGCAGCCCCUGUCAGAUUCUGGUGAAUCUGCGAAUUCUGCAGUAUAUCUC [G9A A15G U72A] | 0.13 |
| UAACAGGGAGCCACAGCAGACGCGUUCACGUCGCGGCCCCCGUCAGUUUCUGGUGAGCCUGCGAAUUCUGCUGUAUAUCUC [G9A A21C A35G U41C A47U A57G U58C] | 0.03 |
| UAACAGGGAGCCACAGCAGAAGGGUUCACGACGCAGCCCCUGCCAGAUUCUGGUGAAUCUGCGAAUUCUGCUGUACAUCUC [G9A C23G U31A U43C U76C] | 0.04 |
| UAACAGGGAGCCACAGCAGAAGCGUUCGCGUCGCAGCCCCCGUCAGACUCUGGUGAACCCGCGAAUUCUGCAGUAUAUCUC [G9A A28G U41C U48C U58C U60C U72A] | 0.03 |
| UAACAGGGAGCCACAGCAGAGGCGUUCACGUCGCAGCCCCUGUCAGAUUUUGGCGAAUCUGCGAAUUCUGCUGUAUAUCUC [G9A A21G C50U U54C] | 0.06 |
